Consider 153 variants from a collection of fitness landscapes (doi:10.1126/science.1257360).

The chains are these.
B1: PhoQ; a variant is named by its letters at X, in order, P23837 (parent)
chain: MKKLLRLFFPLSLRVRFLLATAAVVLVLSLAYGMVALIGYSVSFDKTTFRLLRGESNLFYTLAKWENNKLHVELPENIDKQSPTMTLIYDENGQLLWAQRDVPWLMKMIQPDWLKSNGFHEIEADVNDTSLLLSGDHSIQQQLQEVREDDDDAEMTHSVAVNVYPATSRMPKLTIVVVDTIPVELKSSYMVWSWFIYVLSANLLLVIPLLWVAAWWSLRPIEALAKEVRELEEHNRELLNPATTRELTSLVRNLNRLLKSERERYDKYRTTLTDLTHSLKTPLXXLQXXLRSLRSEKMSVSDAEPVMLEQISRISQQIGYYLHRASMRGGTLLSRELHPVAPLLDNLTSALNKVYQRKGVNISLDISPEISFVGEQNDFVEVMGNVLDNACKYCLEFVEISARQTDEHLYIVVEDDGPGIPLSKREVIFDRGQRVDTLRPGQGVGLAVAREITEQYEGKIVAGESMLGGARMEVIFGRQHSAPKDE

This is one part of the list. A value given as a limit tells only on which side of the number the result lay.

The assay covers variants of B1. The experiment in a line: enrichment ratio after two sorts for PhoP signalling (ratio (wild type AVST 3.29)); higher = more functional. The settings on record: with PhoP (E. coli).
On to ITCE, for which the enrichment ratio was ≤ 0.25.

As to ARLN, the enrichment ratio was ≤ 0.25. Then RHYF, with ≤ 0.25; and QMSQ, with ≤ 0.25; and LDTV, with 0.316. Then IHWV, with ≤ 0.25. Under RFWE stands ≤ 0.25; under ATAT, ≤ 0.25; under YLCL, 0.521.

With TILM, the enrichment ratio was ≤ 0.25. Then IWTG, with ≤ 0.25; and NDCQ, with ≤ 0.25. Under FNYR stands ≤ 0.25; under EGDF, ≤ 0.25.

In the case of VAVC, the enrichment ratio is ≤ 0.25.

On to VGKI, for which the enrichment ratio is ≤ 0.25.

Turning to PAAP, the enrichment ratio is ≤ 0.25. Then GDLV, with 3.9; and QTER, with ≤ 0.25; and PPMI, with ≤ 0.25. In the case of FKQE, the enrichment ratio is ≤ 0.25.

In the case of IHGR, the enrichment ratio was ≤ 0.25. Under TWIG stands ≤ 0.25. Under SGPW stands ≤ 0.25. Under SMPI stands 1.09. Turning to MQSP, the enrichment ratio was ≤ 0.25.

With KIPH, the enrichment ratio is ≤ 0.25. Under DYRI stands ≤ 0.25; under VKMY, ≤ 0.25. For the variant WNWK, the enrichment ratio was ≤ 0.25. Under AMTE stands 15.1; under VWIF, ≤ 0.25; under TVCD, ≤ 0.25.

LPRV: the enrichment ratio was ≤ 0.25. Under DSKR stands ≤ 0.25; under QSFG, 2.89. Then FPDM, with ≤ 0.25; and FFYE, with ≤ 0.25.

Consider MFWP, for which the enrichment ratio was ≤ 0.25.

LKFY: the enrichment ratio is ≤ 0.25. Then MEVQ, with ≤ 0.25; and PQNM, with ≤ 0.25. Under LGKN stands ≤ 0.25; under PYPQ, ≤ 0.25. Then CIAV, with ≤ 0.25. Turning to FFTY, the enrichment ratio is ≤ 0.25. Under QYGR stands ≤ 0.25. Then NPKG, with ≤ 0.25; and TERK, with ≤ 0.25. Then AFAD, with ≤ 0.25. As for WVKV, the enrichment ratio is ≤ 0.25. With SNQE, the enrichment ratio was 18.7. For YWLV, the enrichment ratio is ≤ 0.25. Under SWWR stands ≤ 0.25; under QQFP, ≤ 0.25; under HVPC, ≤ 0.25. Then GSFS, with ≤ 0.25; and PSPT, with ≤ 0.25; and FCLC, with 7.16. As to EGME, the enrichment ratio is ≤ 0.25. Under QLWG stands ≤ 0.25; under TNVQ, ≤ 0.25; under WEYC, ≤ 0.25. On to GTGG, for which the enrichment ratio was ≤ 0.25. PCIA: the enrichment ratio is ≤ 0.25. Then HDHV, with ≤ 0.25; and TIHA, with ≤ 0.25; and PCPD, with ≤ 0.25. Under PNAW stands ≤ 0.25; under PQDW, ≤ 0.25. Then RCVA, with ≤ 0.25. As to VLAL, the enrichment ratio was 0.925.

For RLEF, the enrichment ratio was ≤ 0.25. Take NGGD: the enrichment ratio is ≤ 0.25.

In the case of YSMM, the enrichment ratio came to 14.3. Under GSWG stands ≤ 0.25; under LNAQ, ≤ 0.25. Then KVMV, with ≤ 0.25; and VEHV, with ≤ 0.25. Then MSMD, with ≤ 0.25; and PRVA, with ≤ 0.25; and NEGY, with ≤ 0.25. In the case of FADA, the enrichment ratio is ≤ 0.25. Then PGML, with ≤ 0.25; and WPAC, with ≤ 0.25. Then WWNA, with ≤ 0.25. Then LKHC, with ≤ 0.25; and NGCV, with ≤ 0.25; and TYWK, with ≤ 0.25. With FCQY, the enrichment ratio is ≤ 0.25.

Regarding FASG, the enrichment ratio was ≤ 0.25. Then KMQN, with ≤ 0.25. Take FLAF: the enrichment ratio was ≤ 0.25. Then RIWA, with ≤ 0.25. Then GSKS, with ≤ 0.25; and VNHN, with ≤ 0.25. Under KRLP stands ≤ 0.25. Regarding VMDC, the enrichment ratio is ≤ 0.25.

For WDFM, the enrichment ratio is ≤ 0.25. In the case of TPVY, the enrichment ratio was ≤ 0.25. Under LHMM stands ≤ 0.25; under NTRS, ≤ 0.25; under VMWK, ≤ 0.25. Take PACE: the enrichment ratio was ≤ 0.25. Under GRIC stands ≤ 0.25. Then IMID, with ≤ 0.25; and FTCN, with ≤ 0.25; and TICP, with ≤ 0.25. Under PVFP stands ≤ 0.25; under GSPE, ≤ 0.25. Regarding LHDY, the enrichment ratio was ≤ 0.25. Under TVYW stands ≤ 0.25. As to TKSM, the enrichment ratio stood at 6.54. For the variant GMIR, the enrichment ratio worked out at 1.56. In the case of PHSL, the enrichment ratio is ≤ 0.25. Under NDML stands ≤ 0.25; under PHQC, ≤ 0.25. Then YNAT, with ≤ 0.25; and QTVG, with ≤ 0.25; and PMDP, with ≤ 0.25.

As to IEFD, the enrichment ratio is ≤ 0.25. Regarding DVDM, the enrichment ratio was ≤ 0.25. Then ILTM, with ≤ 0.25. Then ANSE, with 11.5. For the variant MTWV, the enrichment ratio was determined as 0.638. Then MIML, with 14; and HCSI, with ≤ 0.25; and RSIT, with ≤ 0.25.

In the case of NTQH, the enrichment ratio was ≤ 0.25. Under PAPM stands ≤ 0.25; under ISEV, ≤ 0.25. Then QVAC, with ≤ 0.25; and DHSS, with ≤ 0.25; and MWAE, with ≤ 0.25.

Regarding RIMV, the enrichment ratio is ≤ 0.25.

For the variant WDWW, the enrichment ratio is ≤ 0.25. Under KDFE stands ≤ 0.25; under YYHC, ≤ 0.25; under MWCS, ≤ 0.25.

For the variant FHHK, the enrichment ratio was ≤ 0.25. Then HPYA, with ≤ 0.25; and NVCL, with ≤ 0.25; and AAVG, with 2.19.

Consider SMQP, for which the enrichment ratio is ≤ 0.25.

On to NHNV, for which the enrichment ratio was ≤ 0.25. Then VNIT, with 0.43.

For FDLI, the enrichment ratio was ≤ 0.25. Under FCSG stands ≤ 0.25; under KEKM, ≤ 0.25; under PTGL, ≤ 0.25. On to RGIC, for which the enrichment ratio is ≤ 0.25.

In the case of DQGT, the enrichment ratio is ≤ 0.25.

With FCVT, the enrichment ratio is ≤ 0.25.
